PubChem BioAssay (Tox21)
Where “and” joins values, the source holds several entries; their conditions need not be identical. Equal entries are not always repeated. Inconclusive means that the source gave no clear call. Such entries were picked first, then a sample of the others. A potency beside an inconclusive call is a rough fit, not a confirmed value. Where a structure was tested more than once in an assay, its records may differ in their call. Calls of active or inactive are those of the source. Calls come from the whole dose curve; as a rule, active = well fitted curve in the direction sought with a large enough effect in the repeat runs; inconclusive = weak or mixed curves; inactive = no such curve, though single readings can be large; an effect the other way counts as inactive or inconclusive.

How the values were obtained:
[1] = A CellTox Green Cytotoxicity Assay to monitor cytotoxicity in HepG2 cells - 32 hour (AID 1224883); note: nearly all actives have a fitted effect of over 50% in size
Procedure, shortened: (§1)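 Cells and non-lytic dye reagent are dispensed together (600 HepG2 cells/well) and incubated 5 h before DMSO compound transfer. Kinetic fluorescence is then recorded in the same wells during 40 h at 37 C.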

[2] = A CellTox Green Cytotoxicity Assay to monitor cytotoxicity in HEK293 cells - 8 hour (AID 1224884); note: nearly all actives have a fitted effect of over 35% in size
Procedure, shortened: (§2)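 Cells (HEK293, 600/well) and dye reagent are dispensed together. After 5 h at 37 C, 23 nL compound is pinned in. Plates stay at 37 C for 40 h with fluorescence read at 0h, 8h, 16h, 24h, 32h and 40h.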

[3] = qHTS RealTime-Glo MT Cell Viability Assay in HEK293 cells - 8 hour (AID 1224887); note: nearly all actives have a fitted effect of over 50% in size
Procedure, shortened: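 Real-time viability in HEK293: signal arises when living cells convert a prosubstrate for NanoLuc in the medium, so luminescence tracks viable cell number. Compound (23 nL, DMSO) added 5 h post-seeding; kinetic reads at 0–40 h, 37 C.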

[4] = A CellTox Green Cytotoxicity Assay to monitor cytotoxicity in HEK293 cells - 16 hour (AID 1224888); note: nearly all actives have a fitted effect of over 35% in size
Procedure, shortened: as §2

[5] = qHTS RealTime-Glo MT Cell Viability Assay in HepG2 cells - 0 hour (AID 1224889); note: nearly all actives have a fitted effect of over 50% in size
Procedure, shortened: (§3)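 Cell number in HepG2 cultures estimated from NanoLuc luminescence generated by metabolic reduction of a prosubstrate by living cells. The homogeneous, nonlytic format allowed repeated reads at 0, 8, 16, 24, 32 and 40 h of compound exposure.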

[6] = qHTS RealTime-Glo MT Cell Viability Assay in HEK293 cells - 24 hour (AID 1224886); note: nearly all actives have a fitted effect of over 50% in size
Procedure, shortened: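 Homogeneous bioluminescent viability format in HEK293 cells (600 cells/well). Following 5 h at 37 C/5% CO2, 23 nL compound was pintooled; the signal was measured repeatedly during 40 h incubation.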

[7] = qHTS RealTime-Glo MT Cell Viability Assay in HepG2 cells - 16 hour (AID 1224885); note: nearly all actives have a fitted effect of over 50% in size
Procedure, shortened: as §3

[8] = A CellTox Green Cytotoxicity Assay to monitor cytotoxicity in HepG2 cells - 8 hour (AID 1224890); note: nearly all actives have a fitted effect of over 45% in size
Procedure, shortened: as §1

[9] = qHTS assay to identify small molecule antagonists of the estrogen receptor alpha (ER-alpha) signaling pathway using the BG1 cell line in the presence of 0.1 nM 17-beta-estradiol - cell viability counter screen (AID 1259241); note: nearly all actives have a fitted effect of over 40% in size
Procedure, shortened: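 VM7Luc4E2, 4,000 cells/well, phenol red-free medium + 10% charcoal-stripped FBS; 24 hr plating; cpd + 0.1 nM E2 final, 22 hr 37C/5% CO2; CellTiter-Fluor 30 min, fluorescence.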
Potency is the fitted concentration of half-maximal effect; tags give direction and shape of the fitted curve.

In the case of CCCC(CC)CCCCCCCN (stereo not given), the Potency [1] is reported as inconclusive: 56.3 µM [activator, single point], the Potency [2] is reported as active: 50.2 µM and the Potency [3] is reported as inconclusive: 56.3 µM [cytotoxic, single point]. The Potency [4] was inconclusive: 50.2 µM [activator, partial curve, poor fit] and the Potency [5] was inconclusive: 56.3 µM [rising, single point].

With CC(C)OC(=O)c1cc(C(=O)OC(C)C)cc([N+](=O)[O-])c1 the Potency [1] was inconclusive: 22.4 µM [activator, single point], the Potency [2] was inconclusive: 50.1 µM [activator, partial curve, poor fit] and the Potency [6] was inconclusive: 39.8 µM [cytotoxic, partial curve]. For the same molecule, the Potency [3] was inconclusive: 19.2 µM [cytotoxic].

In the case of [Cl][In]([Cl])[Cl], the Potency [1] is reported as inconclusive: 9.77 µM [activator, partial curve, poor fit], the Potency [2] is reported as inconclusive: 10 µM [activator, partial curve, poor fit] and inconclusive: 12.3 µM [activator, partial curve] and the Potency [6] is reported as inconclusive: 12.6 µM [rising, full curve] and inconclusive: 6.92 µM [rising, full curve]. For the same molecule, the Potency [4] was inconclusive: 54.9 µM [activator, single point].

In the case of CCN1/C(=C/C=C/c2sc3ccccc3[n+]2CC)Sc2ccccc21, the Potency [1] is reported as active: 1.17 µM and the Potency [7] is reported as inconclusive: 2.61 µM [cytotoxic, partial curve].

In the case of O=C(/C=C/C=C/c1ccc2c(c1)OCO2)N1CCCCC1, the Potency [1] is reported as inconclusive: 54.9 µM [activator, single point], the Potency [7] is reported as “inactive” and the Potency [6] is reported as inconclusive: 55.1 µM [cytotoxic, single point] and inconclusive: 21.9 µM [cytotoxic, partial curve]. For the same molecule, the Potency [3] was inconclusive: 55.1 µM [cytotoxic, single point] and inactive and the Potency [8] was inconclusive: 61.7 µM [activator, single point].

For CC(C)n1nc(-c2cc3cc(O)ccc3[nH]2)c2c(N)ncnc21, the Potency [1] was active: 23.9 µM, the Potency [2] was “inactive” and the Potency [3] was inconclusive: 1.69 µM [cytotoxic, full curve]. The Potency [9] was inconclusive: 0.188 µM [cytotoxic, full curve].

In the case of O=C(Oc1ccccc1)c1cccc(C(=O)Oc2ccccc2)c1, the Potency [1] is reported as inconclusive: 65 µM [activator, single point], the Potency [2] is reported as inconclusive: 51.6 µM [activator, partial curve, poor fit] and the Potency [6] is reported as inconclusive: 65 µM [cytotoxic, partial curve, poor fit]. The Potency [3] was inconclusive: 51.6 µM [cytotoxic, partial curve, poor fit].

With Oc1ccc(C(c2ccc(O)cc2)C(Cl)(Cl)Cl)cc1 the Potency [1] was inconclusive: 61.6 µM [activator, single point], the Potency [7] was inconclusive: 54.9 µM [cytotoxic, partial curve, poor fit] and the Potency [6] was inconclusive: 38.8 µM [cytotoxic, partial curve] and inconclusive: 43.6 µM [cytotoxic, partial curve]. The Potency [3] was inconclusive: 54.9 µM [cytotoxic, partial curve, poor fit] and the Potency [9] was inconclusive: 61.1 µM [cytotoxic, partial curve, poor fit].

With Nc1ccccc1N the Potency [1] was inconclusive: 21.9 µM [activator, single point], the Potency [2] was active: 50.1 µM and inconclusive: 43.6 µM [activator, partial curve, poor fit] and the Potency [6] was inconclusive: 13.8 µM [rising, full curve]. The Potency [4] was active: 50.1 µM and inconclusive: 43.6 µM [activator, partial curve], the Potency [5] was inconclusive: 49 µM [cytotoxic, partial curve, poor fit] and the Potency [8] was active: 56.2 µM and inconclusive: 19.5 µM [activator, partial curve]. The Potency [9] was inconclusive: 27.3 µM [cytotoxic, full curve].

In the case of NC(=O)c1nc(-c2cccc(-c3cc(F)ccc3OCC(F)(F)C(F)(F)F)c2)n[nH]1, the Potency [1] is reported as active: 43.6 µM, the Potency [2] is reported as “inactive” and the Potency [6] is reported as inconclusive: 43.6 µM [cytotoxic, partial curve].

In the case of OCCN1CCN(CCCN2c3ccccc3Sc3ccc(Cl)cc32)CC1, the Potency [1] is reported as active: 16.9 µM, the Potency [2] is reported as inconclusive: 26.8 µM [activator, single point] and the Potency [3] is reported as inconclusive: 21.3 µM [cytotoxic, partial curve]. The Potency [4] was inconclusive: 26.8 µM [activator, single point], the Potency [5] was inconclusive: 9.52 µM [rising, partial curve, poor fit] and the Potency [8] was active: 23.9 µM.

For CCN(CCN)c1cccc(C)c1, the Potency [1] was inconclusive: 44.1 µM [activator, partial curve], the Potency [2] was inconclusive: 22.1 µM [activator, single point] and the Potency [4] was inconclusive: 31.2 µM [activator, single point]. The Potency [5] was inconclusive: 44.1 µM [rising, partial curve, poor fit] and the Potency [8] was inconclusive: 49.4 µM [activator, single point].

For CCCCCCc1ccc(O)cc1O, the Potency [1] was active: 49.1 µM and active: 38.9 µM and active: 21.3 µM, the Potency [7] was inconclusive: 49 µM [cytotoxic, partial curve, poor fit] and the Potency [6] was inconclusive: 8.49 µM [cytotoxic, partial curve]. For the same molecule, the Potency [3] was active: 15.5 µM and active: 9.77 µM and inconclusive: 8.49 µM [cytotoxic, partial curve], the Potency [4] was inconclusive: 61.8 µM [activator, single point] and inconclusive: 54.9 µM [activator, single point] and the Potency [8] was inconclusive: 23.9 µM [activator, single point].

In the case of COc1cc(C=C2CCC/C(=C\c3ccc(O)c(OC)c3)C2=O)ccc1O, the Potency [1] is reported as active: 21.3 µM, the Potency [7] is reported as inconclusive: 21.3 µM [cytotoxic, single point] and the Potency [6] is reported as active: 23.9 µM. For the same molecule, the Potency [5] was inconclusive: 26.8 µM [cytotoxic, partial curve, poor fit], the Potency [8] was inconclusive: 23.9 µM [activator, single point] and the Potency [9] was inconclusive: 29.8 µM [cytotoxic, single point].

In the case of CNCCCC12CCC(c3ccccc31)c1ccccc12, the Potency [1] is reported as active: 34.7 µM and active: 23.9 µM, the Potency [7] is reported as inconclusive: 21.3 µM [cytotoxic, partial curve] and the Potency [6] is reported as active: 49 µM and inconclusive: 23.9 µM [cytotoxic, single point]. For the same molecule, the Potency [3] was inconclusive: 54.9 µM [cytotoxic, single point], the Potency [4] was inconclusive: 54.9 µM [activator, single point] and inconclusive: 26.8 µM [activator, single point] and the Potency [5] was inconclusive: 43.6 µM [rising, partial curve] and inconclusive: 23.9 µM [rising, partial curve]. The Potency [8] was inconclusive: 54.9 µM [activator, single point] and the Potency [9] was inconclusive: 68.6 µM [cytotoxic, single point].

In the case of Oc1ccc2c(c1)Cc1ccccc1-2, the Potency [1] is reported as inconclusive: 49 µM [activator, partial curve, poor fit], the Potency [2] is reported as inconclusive: 54.9 µM [activator, single point] and the Potency [3] is reported as active: 21.9 µM. For the same molecule, the Potency [8] was inconclusive: 49 µM [activator, single point].

With Nc1c(Cl)cc(Cl)cc1Cl the Potency [1] was inconclusive: 54.1 µM [activator, partial curve, poor fit], the Potency [2] was active: 21.6 µM and the Potency [3] was inconclusive: 34.2 µM [cytotoxic, partial curve, poor fit]. For the same molecule, the Potency [4] was active: 21.6 µM.

With CCCCN(CCCC)c1ccc(C(=O)c2ccccc2C(=O)O)c(O)c1 the Potency [1] was inconclusive: 55.5 µM [activator, single point], the Potency [2] was inconclusive: 55.5 µM [activator, single point] and the Potency [4] was inconclusive: 55.5 µM [activator, single point].

For CC[C@]1(O)C[C@@H]2CN(CCc3c([nH]c4ccccc34)[C@@](C(=O)OC)(c3cc4c(cc3OC)N(C)[C@H]3[C@@](O)(C(=O)OC)[C@H](OC(C)=O)[C@]5(CC)C=CCN6CC[C@]43[C@@H]65)C2)C1, the Potency [1] was inconclusive: 0.006 µM [activator, full curve, poor fit], the Potency [7] was inconclusive: 12 µM [cytotoxic, partial curve, poor fit] and inconclusive: 13.4 µM [cytotoxic, partial curve, poor fit] and the Potency [6] was inconclusive: 0.0134 µM [cytotoxic, full curve]. For the same molecule, the Potency [3] was inconclusive: 33.8 µM [cytotoxic, single point] and the Potency [9] was inconclusive: 11.9 µM [cytotoxic, partial curve].

For CNC(=O)c1cc(Oc2ccc(NC(=O)Nc3ccc(Cl)c(C(F)(F)F)c3)cc2)ccn1, the Potency [1] was inconclusive: 6.01 µM [activator, single point], the Potency [7] was inconclusive: 19 µM [cytotoxic, partial curve] and the Potency [6] was active: 3.38 µM. For the same molecule, the Potency [3] was active: 4.25 µM and the Potency [9] was inconclusive: 29.8 µM [cytotoxic, partial curve, poor fit].
